Measured values as given in publication PMC4894954.
No constants are given. Whether binding was seen depends on the method and setting. For some assays here: In cells and extracts the contact can be indirect. Some results given as binding are weak or reduced against the parent protein; the word gives no strength.

Amino acid sequences for entries named in this document (tags omitted).
UniProt O14777: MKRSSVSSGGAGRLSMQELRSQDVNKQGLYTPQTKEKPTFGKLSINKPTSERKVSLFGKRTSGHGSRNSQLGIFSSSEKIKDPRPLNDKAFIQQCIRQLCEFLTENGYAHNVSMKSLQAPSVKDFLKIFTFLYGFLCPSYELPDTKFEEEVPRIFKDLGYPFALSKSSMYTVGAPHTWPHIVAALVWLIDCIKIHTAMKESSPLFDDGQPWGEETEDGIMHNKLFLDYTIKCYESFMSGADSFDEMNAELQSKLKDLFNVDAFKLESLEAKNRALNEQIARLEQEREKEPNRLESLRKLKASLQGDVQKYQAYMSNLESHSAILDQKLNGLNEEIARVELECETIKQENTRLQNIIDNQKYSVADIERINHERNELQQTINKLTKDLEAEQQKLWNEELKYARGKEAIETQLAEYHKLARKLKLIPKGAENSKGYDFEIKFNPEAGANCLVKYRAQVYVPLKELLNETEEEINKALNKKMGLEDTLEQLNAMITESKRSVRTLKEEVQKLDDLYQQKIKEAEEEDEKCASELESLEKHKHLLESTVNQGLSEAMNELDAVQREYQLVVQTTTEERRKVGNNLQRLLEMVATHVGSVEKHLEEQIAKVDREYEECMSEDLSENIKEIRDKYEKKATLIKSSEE

Tests used:
His-tagged Ska1 (human) = His-tagged Ska1 (human) (UniProt Q96BD8); assay: SEC; Superose 12 column at 4 °C; purified EB1, Ska1 or their equimolar mixture loaded; 200 μl fractions analysed by Western blot; both purified
Ska1–GFP = Ska1–GFP (UniProt Q96BD8); assay: co-IP; Ska1–GFP immunoprecipitated with GFP antibody and protein G agarose beads from Ska1–GFP HeLa cell lysate; Western blot for Ska1–GFP, EB1 and Hec1
EB1c–GST (human) = EB1c–GST (human) (UniProt Q15691); assay: pull-down; purified EB1–GST, EB1c–GST or free GST on glutathione Sepharose beads incubated with lysate of synchronized mitotic HeLa cells; Western blot; in one experiment cells treated with nocodazole followed by MG-132; only the target purified
[1] = target: EB1–GST (full length) (human) (UniProt Q15691); assay: as above
[2] = target: EB1 (endogenous) (human (endogenous in HeLa)) (UniProt Q15691); assay: co-IP; EB1 immunoprecipitated with mouse monoclonal EB1 antibody from lysates of double thymidine-synchronized mitotic shake-off HeLa cells; Western blot for EB1, Ska1 and Hec1; rabbit and mouse IgG as control

binding (His-tagged Ska1 (human))	binding (Ska1–GFP)	binding (EB1c–GST (human))	binding [1]	binding [2]	Substance
no binding					His-tagged Ska1 (from UniProt Q96BD8 1-255)
	binds				EB1 (endogenous) (from UniProt Q15691 1-268)
		binds	binds	binds	Ska1 (endogenous) (from UniProt Q96BD8 1-255)
		binds	binds	binds	Hec1 (Ndc80) (endogenous) (from UniProt O14777 1-642)
